Data on 56 sequences can be found in the supplement of paper PMC11417369.

± gives the standard deviation of the averaged measurements. The list shows a part of the results.

The subject of the experiment is PfAP2-EXP AP2 domain (GST-tagged). The experiment is described as follows: gcPBM binding intensity (ln(normalized median fluorescence intensity)); higher = stronger DNA binding. In short, it runs like this:
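Binding of GST-tagged P. falciparum DNA-binding domains, expressed in E. coli and used at about 25 μg on average, was carried out for 1 h in 1× PBS containing 1% milk, 0.2 mg/ml BSA, 0.5% salmon testes DNA and 0.03% Triton X-100. The target was an Agilent 4 × 180k array of primer-extended double-stranded 36-bp intergenic genomic probes plus negative controls, read with Alexa488 anti-GST antibody at 488 nm. Binding intensity is the highest Masliner-normalised natural-log median intensity across replicate spots of either probe orientation.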
For “ATAATATGTAATATTACACACAATTCATCATTTTTT [CACACA_site3159]”, the “gcPBM binding intensity (ln)” value was found to be 8.34 ± 0.4.

Regarding “ATATACACCGTTGAATGTACATAAATAATATTAATA [XGTACX_site2893]”, the “gcPBM binding intensity (ln)” value was 8.92 ± 0.28.

“AAGTATTATTTTTATGCATGTGAAGTGCAAAATAAA [TGCATGCA_site198]”: the “gcPBM binding intensity (ln)” value came to 8.605 ± 0.049.

Take “AGTACATTTTTTTTAATAGGAAAAAAAATATTTATT [TGCATGCA_negctrl_site575]”: the “gcPBM binding intensity (ln)” value is 8.29 ± 0.42.

Consider “TTTAAAAAAATGAAATAAAAAAAAAATAAAATAAAA [XGTACX_negctrl_site316]”, for which the “gcPBM binding intensity (ln)” value is 8.36 ± 0.54.

“AAATAATTTATATATTGTACAAATATTAAATGCGAA [XGTACX_site3390]”: the “gcPBM binding intensity (ln)” value was 8.81 ± 0.36.

As to “ATATATATAATTTGTACACACAAATATGCATATATA [CACACA_site3432]”, the “gcPBM binding intensity (ln)” value came to 8.6 ± 0.26.

Consider “AGATATTTTTCTTAAGTACACACTAAATAGAAACTA [CACACA_site44]”, for which the “gcPBM binding intensity (ln)” value was determined as 8.4 ± 0.45.

For “AGTCTGAATAAAATTACACACATATACCTATAAATA [CACACA_site6929]”, the “gcPBM binding intensity (ln)” value was 8.32 ± 0.5.

With “TTTTTTTTTTTCAGTTGTACATTGGGAAAATATATA [XGTACX_site4416]”, the “gcPBM binding intensity (ln)” value turned out to be 8.48 ± 0.47.

As to “AAAAATATATAAACACGTACACACACATATATGTAT [XGTACX_site7436]”, the “gcPBM binding intensity (ln)” value worked out at 8.88 ± 0.54.

Take “GAAAAAAAAAAAAAAAGAAAATTCATATTTTTAATA [XGTACX_negctrl_site513]”: the “gcPBM binding intensity (ln)” value came out at 7.71 ± 0.56.

With “ACATTTATATATAATTGTACCCTACATTCTCTTTTT [XGTACX_site189]”, the “gcPBM binding intensity (ln)” value came to 8.7 ± 0.39.

On to “TACCAAAAAAAAAAAAAAAATTAAATAAATATGAAA [TGCATGCA_negctrl_site383]”, for which the “gcPBM binding intensity (ln)” value is 8.04 ± 0.34.

In the case of “GGGTTGATATATATTTGTACATATTATTATTTATTA [XGTACX_site7116]”, the “gcPBM binding intensity (ln)” value was found to be 9.11 ± 0.66.

Regarding “TTTATTTTAACTTGTTCACACATTTGAATAAATAAA [CACACA_site5064]”, the “gcPBM binding intensity (ln)” value stood at 8.4 ± 0.45.

In the case of “ATATATATATATTATGTGCGCATATACCATTTTAAT [GTGCAC_site9575]”, the “gcPBM binding intensity (ln)” value is 9.69 ± 0.31.

As for “AATGGAAAAGGTAGTTGTACAACATGTTAAAATGGT [XGTACX_site1312]”, the “gcPBM binding intensity (ln)” value was 9.3 ± 0.44.

Take “ATATAAATATTAATTACACACAAAAAAAAAAAAAAA [CACACA_site6671]”: the “gcPBM binding intensity (ln)” value was found to be 8.23 ± 0.45.

For “AATAAAAAAAAACGCACACACAAATATATTCCATTC [CACACA_site1224]”, the “gcPBM binding intensity (ln)” value was 8.69 ± 0.54.

On to “CTCAAAAAATTTCATAGTACTTTAAAATACTATAAT [XGTACX_site1939]”, for which the “gcPBM binding intensity (ln)” value is 8.24 ± 0.44.

Take “ATATAAATAAACAACTTTGTTGGCCTTCCAAAATAT [CACACA_negctrl_site1181]”: the “gcPBM binding intensity (ln)” value was 8.44 ± 0.51.

Turning to “TTGAAGAATAAATATGCACACATGCATATATTTTTA [CACACA_site5840]”, the “gcPBM binding intensity (ln)” value worked out at 8.38 ± 0.25.

Regarding “TTTTGTTCTAATATGGGAACATAAATATTAAATATA [CACACA_negctrl_site1787]”, the “gcPBM binding intensity (ln)” value amounted to 8.22 ± 0.45.

For “TAGATATATAGAATTACACACTTTTCTATAATATGA [CACACA_site6475]”, the “gcPBM binding intensity (ln)” value came to 8.05 ± 0.44.

“AATAAAATACAAAAATGTACAAATATAATATACATA [XGTACX_site279]”: the “gcPBM binding intensity (ln)” value is 8.34 ± 0.28.

On to “TAATAATATAAATATGCACACAAATTATTACCCAAA [CACACA_site8805]”, for which the “gcPBM binding intensity (ln)” value came out at 8.59 ± 0.21.

Take “ATAAAATAAAACAACACACACGAATGTATAAATATA [CACACA_site4643]”: the “gcPBM binding intensity (ln)” value was determined as 8.7 ± 0.61.

Consider TATATATATAAATGAATGCACTTTAGAAAAAAGTAC, for which the “gcPBM binding intensity (ln)” value worked out at 8.72 ± 0.13.

For the sequence “ATATATATTATAATAACACACATATATTATATTATA [CACACA_site406]”, the “gcPBM binding intensity (ln)” value turned out to be 8.29 ± 0.34.

Consider “TAATATAAAATGATAAATGAATGTGATCATTTTATA [CACACA_negctrl_site1034]”, for which the “gcPBM binding intensity (ln)” value came out at 8.38 ± 0.36.

On to “ACATACTCAAATAGCACACACATAAATAAAAATGTA [CACACA_site3864]”, for which the “gcPBM binding intensity (ln)” value was 8.69 ± 0.49.

On to “CATATATATTTTATATGTACATATATATTTTATATA [XGTACX_site8665]”, for which the “gcPBM binding intensity (ln)” value was 8.45 ± 0.25.

As to “ATATATATTTAAAACGCATGCCTTGTTATATATATA [TGCATGCA_site624]”, the “gcPBM binding intensity (ln)” value turned out to be 9.11 ± 0.37.

For the sequence “ATTACAAAAATATATAAACACACAAATATAATATAT [CACACA_site8962]”, the “gcPBM binding intensity (ln)” value worked out at 8.69 ± 0.45.

Turning to “AATAAGAAAACAAATGCACACCATTTATATAGATTA [CACACA_site8261]”, the “gcPBM binding intensity (ln)” value turned out to be 8.47 ± 0.21.

As to “ATGGGTTAGGCGTGTACACAATTGTATGGTTTAATA [CACACA_site4812]”, the “gcPBM binding intensity (ln)” value stood at 9.12 ± 0.46.

On to “TATATTAATTATAAGACACACATATAGTAATAGAAA [CACACA_site2056]”, for which the “gcPBM binding intensity (ln)” value was 8.71 ± 0.38.

In the case of “TTTATATATTTTTATCTTGATAATAATGTTTTAGAA [TGCATGCA_negctrl_site300]”, the “gcPBM binding intensity (ln)” value was determined as 8.08 ± 0.37.

In the case of “ACATATTTTTACTTTTGTACATATTTTTTAATTTTC [XGTACX_site640]”, the “gcPBM binding intensity (ln)” value stood at 8.91 ± 0.32.

As to “GTATATTACATAAAATGTACATAAAAAGCGGAAAAG [XGTACX_site6905]”, the “gcPBM binding intensity (ln)” value was determined as 9.19 ± 0.34.

As for “AAATATAATTAATGATGTACACTTATAGATATTGAT [XGTACX_site8435]”, the “gcPBM binding intensity (ln)” value was determined as 8.65 ± 0.32.

“TATAATAAAATTTTTACACACTTTAAAAAAAAAAAA [CACACA_site524]”: the “gcPBM binding intensity (ln)” value is 8.33 ± 0.41.

Regarding “TACTGATATAATATAACCGTTTATGTGTATTTTTTA [XGTACX_negctrl_site81]”, the “gcPBM binding intensity (ln)” value was determined as 8.15 ± 0.48.

Take “GGGTTAATATTTACTACACACACTTAAAATATGTAT [CACACA_site47]”: the “gcPBM binding intensity (ln)” value was 8.59 ± 0.47.

On to “ATGTATTTTTAAAAATATAAATTATGTAACTTGTGA [XGTACX_negctrl_site620]”, for which the “gcPBM binding intensity (ln)” value stood at 8.38 ± 0.39.

Take “TATTCTCGTTCTCATACACACAAAATATACATACAC [CACACA_site7278]”: the “gcPBM binding intensity (ln)” value amounted to 8.89 ± 0.45.

In the case of “TTCAAATATATGTTTTCACACACAAAAGAAATGAAA [CACACA_site8671]”, the “gcPBM binding intensity (ln)” value turned out to be 8.51 ± 0.41.

On to “CGTGGAAAAAAAAACACACACAAAAAAAAAAAAAAA [CACACA_site3997]”, for which the “gcPBM binding intensity (ln)” value turned out to be 8.15 ± 0.45.

For the sequence “TTTTCTCTAAAAAGGTGTACAACTAATAATGCACTG [XGTACX_site6074]”, the “gcPBM binding intensity (ln)” value worked out at 9.35 ± 0.75.

Turning to “ATATATATATAATATTGTACGAAAAAAAATAAAAAA [XGTACX_site974]”, the “gcPBM binding intensity (ln)” value amounted to 9.405 ± 0.035.

For the sequence “TTTTTTTTTTTTACATGTACATATGAATTATAATAT [XGTACX_site5016]”, the “gcPBM binding intensity (ln)” value is 8.82 ± 0.45.

“TATTTTACTTTAAAAATGGAAAAAAAAAAGAATATT [CACACA_negctrl_site1360]”: the “gcPBM binding intensity (ln)” value was 8.38 ± 0.47.

On to “GAAAGAAGCATAAATGTACACACATATTTATATATT [CACACA_site8368]”, for which the “gcPBM binding intensity (ln)” value amounted to 8.44 ± 0.39.

For “ATTGTCATCATTATATGTACGTAAAAGAATATAGAT [XGTACX_site3117]”, the “gcPBM binding intensity (ln)” value was 8.98 ± 0.39.

For “TTAATAAAACTAACACGTACACATATATAATATTAT [XGTACX_site3260]”, the “gcPBM binding intensity (ln)” value is 8.77 ± 0.44.
